Measured values published in paper PMC7529893, “Structural basis for substrate recognition and chemical inhibition of oncogenic MAGE ubiquitin ligases” (Nature Communications, 2020).
These are yes or no findings as the source states them, for the method shown. For part of these data: In cells and extracts the contact can be indirect. Some results given as binding are weak or reduced against the parent protein; the word gives no strength. For part of these data: Tags and fused reporters may be left off the sequences shown. Blank lines part the entries; values can stand above or below the binder they belong to.

Assays:
[1] = target: MAGE-A11 MHD (218-429), as part of the crystallised fusion (human) (UniProt P43364); assay: crystal structure; PCF11 677-701 fused by GGSGRP to the N-terminus of MAGE-A11 MHD 218-429; sitting drop, 20 °C, 0.2 M Na acetate, 0.1 M Bis Tris propane pH 7.5, 20% PEG 3350; four protomers in the P 1 cell; both purified
[2] = target: MAGE-A11 in cell lysates (co-IP for dimer formation, Supplementary Fig. 2a) (human) (UniProt P43364); assay: co-IP; cell lysates (Supplementary Fig. 2a); constructs not given
[3] = target: T1, Myc-MAGE-F1 L196R (UniProt Q9HAY2); assay: co-IP; HEK293FT cells transfected with the indicated constructs for 48 h; IP with anti-Myc, immunoblot; in Fig. 5i lysates were incubated with 100 µM SJ521054 or SJ1008066 for 24 h
T1 sequence: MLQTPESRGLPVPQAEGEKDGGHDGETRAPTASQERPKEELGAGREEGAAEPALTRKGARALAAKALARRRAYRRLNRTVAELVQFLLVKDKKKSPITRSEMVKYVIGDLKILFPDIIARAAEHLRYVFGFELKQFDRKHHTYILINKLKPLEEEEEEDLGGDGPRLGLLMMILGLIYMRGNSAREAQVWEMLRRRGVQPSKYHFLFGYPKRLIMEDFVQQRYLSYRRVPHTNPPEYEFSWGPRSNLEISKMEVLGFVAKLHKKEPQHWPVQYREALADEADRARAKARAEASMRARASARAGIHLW

[4] = target: T2, Myc-MAGE-F1 wild-type (UniProt Q9HAY2); assay: as above
T2 sequence: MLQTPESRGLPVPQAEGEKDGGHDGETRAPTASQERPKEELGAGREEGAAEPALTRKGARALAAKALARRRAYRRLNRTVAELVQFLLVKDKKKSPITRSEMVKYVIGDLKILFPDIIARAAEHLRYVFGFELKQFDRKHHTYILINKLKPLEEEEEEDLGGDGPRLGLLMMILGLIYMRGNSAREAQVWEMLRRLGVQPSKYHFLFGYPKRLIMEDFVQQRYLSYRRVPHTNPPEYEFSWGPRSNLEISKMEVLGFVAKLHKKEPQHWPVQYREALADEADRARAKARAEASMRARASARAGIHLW

[5] = target: T3, Myc-MAGE-F1 F129A (UniProt Q9HAY2); assay: as above
T3 sequence: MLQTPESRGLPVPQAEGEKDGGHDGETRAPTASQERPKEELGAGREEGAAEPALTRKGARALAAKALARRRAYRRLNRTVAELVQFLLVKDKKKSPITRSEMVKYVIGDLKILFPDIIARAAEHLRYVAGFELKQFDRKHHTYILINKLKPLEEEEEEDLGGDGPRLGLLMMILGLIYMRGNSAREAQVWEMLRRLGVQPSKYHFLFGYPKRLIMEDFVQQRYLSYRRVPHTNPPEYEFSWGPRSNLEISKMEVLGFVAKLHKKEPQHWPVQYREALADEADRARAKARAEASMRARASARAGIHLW

[6] = target: T4, Myc-MAGE-F1 W269A (UniProt Q9HAY2); assay: as above
T4 sequence: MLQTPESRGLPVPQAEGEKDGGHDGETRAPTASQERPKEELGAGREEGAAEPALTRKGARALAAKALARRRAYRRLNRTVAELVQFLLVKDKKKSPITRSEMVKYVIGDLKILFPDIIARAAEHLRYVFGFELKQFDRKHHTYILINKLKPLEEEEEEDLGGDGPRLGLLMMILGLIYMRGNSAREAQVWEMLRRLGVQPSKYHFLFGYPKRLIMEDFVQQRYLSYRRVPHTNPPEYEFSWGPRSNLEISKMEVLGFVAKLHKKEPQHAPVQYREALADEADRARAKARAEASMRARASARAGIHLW

binding [1]: no binding
B1: MAGE-A11 MHD (218-429), as part of the crystallised fusion (domain or fragment, UniProt P43364 218-429)
chain: SQDILHDKIIDLVHLLLRKYRVKGLITKAEMLGSVIKNYEDYFPEIFREASVCMQLLFGIDVKEVDPTSHSYVLVTSLNLSYDGIQCNEQSMPKSGLLIIVLGVIFMEGNCIPEEVMWEVLSIMGVYAGREHFLFGEPKRLLTQNWVQEKYLVYRQVPGTDPACYEFLWGPRAHAETSKMKVLEYIANANGRDPTSYPSLYEDALREEGEGV

binding [2]: no binding
B2: MAGE-A11 in cell lysates (co-IP for dimer formation, Supplementary Fig. 2a) (protein, UniProt P43364 1-429)
chain: METQFRRGGLGCSPASIKRKKKREDSGDFGLQVSTMFSEDDFQSTERAPYGPQLQWSQDLPRVQVFREQANLEDRSPRRTQRITGGEQVLWGPITQIFPTVRPADLTRVIMPLEQRSQHCKPEEGLQAQEEDLGLVGAQALQAEEQEAAFFSSTLNVGTLEELPAAESPSPPQSPQEESFSPTAMDAIFGSLSDEGSGSQEKEGPSTSPDLIDPESFSQDILHDKIIDLVHLLLRKYRVKGLITKAEMLGSVIKNYEDYFPEIFREASVCMQLLFGIDVKEVDPTSHSYVLVTSLNLSYDGIQCNEQSMPKSGLLIIVLGVIFMEGNCIPEEVMWEVLSIMGVYAGREHFLFGEPKRLLTQNWVQEKYLVYRQVPGTDPACYEFLWGPRAHAETSKMKVLEYIANANGRDPTSYPSLYEDALREEGEGV

binding [3]: binds | binding [4]: binds | binding [5]: binds | binding [6]: binds
B3: NSE1 (enzyme, UniProt Q8WV22 1-266)
chain: MQGSTRRMGVMTDVHRRFLQLLMTHGVLEEWDVKRLQTHCYKVHDRNATVDKLEDFINNINSVLESLYIEIKRGVTEDDGRPIYALVNLATTSISKMATDFAENELDLFRKALELIIDSETGFASSTNILNLVDQLKGKKMRKKEAEQVLQKFVQNKWLIEKEGEFTLHGRAILEMEQYIRETYPDAVKICNICHSLLIQGQSCETCGIRMHLPCVAKYFQSNAEPRCPHCNDYWPHEIPKVFDPEKERESGVLKSNKKSLRSRQH
